Reference: publication PMC4742234, “Screening of Drug Metabolizing Enzymes for the Ginsenoside Compound K In Vitro: An Efficient Anti-Cancer Substance Originating from Panax Ginseng” (PLoS ONE, 2016)

Substrate: CC(C)=CCC[C@](C)(OC1O[C@H](CO)[C@@H](O)[C@H](O)[C@H]1O)[C@H]1CC[C@]2(C)[C@@H]1[C@H](O)C[C@@H]1[C@@]3(C)CC[C@H](O)C(C)(C)[C@@H]3CC[C@]12C
Assay: Kinetic analysis of CK metabolism by recombinant CYP3A4
Type: in vitro ADME, human
Settings: other: recombinant CYP3A4 10 pmol, CK 10–100 μM; pH 7.4; 37.0 °C
Protocol: The method was conducted according to our previous study with some modifications. The CYP isoform-specific probe reactions used were phenacetin O-deethylation (for CYP1A2), coumarin 7-hydroxylation (for CYP2A6), tolbutamide 4-hydroxylation (for CYP2C9), metoprolol α-hydroxylation (for CYP2D6), chlorzoxazone 6-hydroxylation (for CYP2E1),S-Mephenytoin 4-hydroxylation (for CYP2C19), and midazolam 1-hydroxylation (for CYP3A4). The kinetic study of CK was conducted with HLMs. A 0.2 mL incubation mixture that consisted of CK (as a substrate), the HLMs (0.5 mg/mL) or CYP isoforms (10 pmol), and 0.1 M sodium phosphate buffer (pH 7.4) was pre-warmed for 5 min at 37°C. The reaction was initiated by the addition of 1 mg/mL triphosphopyridine nucleotide (NADPH). […]
The kinetic parameters for the metabolism of CK were determined by incubating increasing concentrations of CK (10–100 μM) at 37°C with the HLMs and NADPH under the incubation conditions as described in detail previously. The equation of CK reaction velocity (V) in the HLMs or CYP isoforms is expressed as V = (C0–Ct)/T/Cp, where C0and Ct are the initial and final concentrations of CK in the incubation solution, respectively, T is the incubation time (min), and Cp is the protein concentration (mg/mL or nmol). All values were expressed as the mean±standard deviation (SD). […]

B1: recombinant CYP3A4 (Homo sapiens) (protein)
chain: MALIPDLAMETWLLLAVSLVLLYLYGTHSHGLFKKLGIPGPTPLPFLGNILSYHKGFCMFDMECHKKYGKVWGFYDGQQPVLAITDPDMIKTVLVKECYSVFTNRRPFGPVGFMKSAISIAEDEEWKRLRSLLSPTFTSGKLKEMVPIIAQYGDVLVRNLRREAETGKPVTLKDVFGAYSMDVITSTSFGVNIDSLNNPQDPFVENTKKLLRFDFLDPFFLSITVFPFLIPILEVLNICVFPREVTNFLRKSVKRMKESRLEDTQKHRVDFLQLMIDSQNSKETESHKALSDLELVAQSIIFIFAGYETTSSVLSFIMYELATHPDVQQKLQEEIDAVLPNKAPPTYDTVLQMEYLDMVVNETLRLFPIAMRLERVCKKDVEINGMFIPKGVVVMIPSYALHRDPKYWTEPEKFLPERFSKKNKDNIDPYIYTPFGSGPRNCIGMRFALMNMKLALIRVLQNFSFKPCKETQIPLKLSLGGLLQPEKPVVLKVESRDGTVSGA
notes: purchased Cypex Ltd. (U.K.)
For B1, the Km was 27.03 ± 5.04 µM.
